Source: PMC4336329 (PLoS ONE, 2015)
The whole screen tested about 310,000 compounds, of which about 2,200 (0.71%) showed an effect of 50% or more. The effect is printed as a negative number. Some of the results follow.

molecular target: human ether-à-go-go-related gene (hERG) potassium channel (human, UniProt Q12809); experiment: primary screen, population patch clamp on CHO cells stably expressing hERG
Sequence (Q12809 whole entry, looked up): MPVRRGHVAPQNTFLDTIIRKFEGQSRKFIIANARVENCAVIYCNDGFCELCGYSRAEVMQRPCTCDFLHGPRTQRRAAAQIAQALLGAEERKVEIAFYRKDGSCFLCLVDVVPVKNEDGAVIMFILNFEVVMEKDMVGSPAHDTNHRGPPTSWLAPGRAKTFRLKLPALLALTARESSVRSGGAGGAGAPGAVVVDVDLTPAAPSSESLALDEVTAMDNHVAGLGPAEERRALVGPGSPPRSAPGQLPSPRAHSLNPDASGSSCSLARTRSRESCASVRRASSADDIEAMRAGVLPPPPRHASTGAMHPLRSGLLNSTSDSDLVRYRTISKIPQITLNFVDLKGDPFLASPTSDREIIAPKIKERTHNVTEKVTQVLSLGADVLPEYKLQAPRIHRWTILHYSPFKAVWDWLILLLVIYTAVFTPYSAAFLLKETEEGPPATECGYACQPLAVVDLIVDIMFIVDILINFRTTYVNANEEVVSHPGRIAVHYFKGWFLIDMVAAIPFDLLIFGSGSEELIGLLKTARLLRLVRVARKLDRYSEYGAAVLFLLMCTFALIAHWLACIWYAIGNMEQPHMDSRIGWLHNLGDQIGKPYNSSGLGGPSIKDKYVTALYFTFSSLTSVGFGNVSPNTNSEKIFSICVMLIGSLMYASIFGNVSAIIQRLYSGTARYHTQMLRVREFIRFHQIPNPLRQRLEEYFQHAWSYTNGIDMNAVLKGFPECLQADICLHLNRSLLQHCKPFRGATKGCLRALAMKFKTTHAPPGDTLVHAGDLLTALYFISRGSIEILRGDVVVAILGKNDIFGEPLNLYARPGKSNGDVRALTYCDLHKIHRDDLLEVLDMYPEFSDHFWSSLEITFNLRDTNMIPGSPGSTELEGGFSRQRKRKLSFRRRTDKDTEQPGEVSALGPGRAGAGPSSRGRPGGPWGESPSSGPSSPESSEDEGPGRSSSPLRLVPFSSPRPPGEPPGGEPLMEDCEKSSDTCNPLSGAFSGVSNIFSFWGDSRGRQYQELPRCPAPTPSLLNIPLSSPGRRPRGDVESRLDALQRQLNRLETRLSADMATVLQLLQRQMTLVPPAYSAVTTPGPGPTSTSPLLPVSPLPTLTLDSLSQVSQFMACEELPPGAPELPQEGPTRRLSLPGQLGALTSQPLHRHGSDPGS

| Compound | hERG current change (%, negative = inhibition) at 1uM |
| --- | --- |
| CCc1nnc(NC(=O)CSc2nc(C3CCCCC3)nc3ccccc23)s1 | 4.49% |
| COc1ccccc1OCC(=O)NCCc1nc2ccccc2[nH]1 | 9.88% |
| Cn1c(C(=O)Nc2ccccc2)cc2sccc21 | 12.5% |
| CCn1c(/C=C/c2ccccc2[N+](=O)[O-])nc2ccccc2c1=O | 7.78% |
| COc1cccc(=O)c2c(C)n(-c3cc(C)cc(C)c3)c(C)c12 | 5.71% |
| Cc1cccc(C)c1NC(=O)CSc1nc(C2CC2)nc2ccccc12 | 13.2% |
| COc1cc(N2C(=O)C=CC2=O)c(OC)cc1Cl | 13.5% |
| Fc1ccccc1CNCCc1c[nH]c2ccccc12.O=C(O)C(=O)O | 7.97% |
| Cc1ccc(S(=O)(=O)N2CCCC(C(=O)NC3CC3)C2)cc1 (stereo not drawn) | 7.78% |
| Cc1csc2c(=O)sc(NC(=O)c3ccc(F)cc3)nc12 | 8.23% |
| COc1cc(OC)c(NC(=O)c2c(-c3ccccc3)noc2C)cc1Cl | 4.68% |
| CCCOC(=O)c1ccc(Oc2c(-c3ccc(O)cc3O)n[nH]c2C)cc1 | -3.83% |
| C=CCSc1nc(NC)c2sccc2n1 | -20.2% |
| CCn1c(C)nc2cc(C(=O)N/N=C/c3ccc(N4CCOCC4)cc3)ccc21 | 15.5% |
| CCn1c(=O)n(CC)c2cc(N)ccc21.Cl | 23.7% |
| Cc1cccc(NC(=O)c2cccc(C(F)(F)F)c2)c1 | 7.48% |
| Cc1cc(C)cc(N2C(=O)CC(n3ccnc3)C2=O)c1 (stereo not drawn) | 6.75% |
| COc1ccccc1C1CCCN1Cc1nc(-c2cc3c(cc2Cl)OCO3)oc1C (stereo not drawn) | 1.7% |
| CCCCc1cc(=O)oc2cc(OCc3nn[nH]n3)c(Cl)cc12 | 9.53% |
| CCOC(=O)N1CCN(C(=O)c2cc3c(s2)-c2c(C)cccc2OC3)CC1 | -0.514% |
| O=S(=O)(c1ccc2ccccc2c1)N1CCC(c2nc(-c3ccncc3)no2)CC1 | 0.633% |
| O=c1c2cn[nH]c2[nH]c(=S)n1-c1cccc2ccccc12 | -0.557% |
| Clc1ccc(Cn2nnc(-c3ccccc3)n2)cc1 | 16.7% |

| Compound | hERG current change (%, negative = inhibition) at 1uM |
| --- | --- |
| CCOCCCNC(=O)C(c1ccc(C)cc1)N(Cc1ccc2c(c1)OCO2)C(=O)c1ccccn1 (stereo not drawn) | -8.51% |
| CC(C)O.CCc1nnc(NS(=O)(=O)c2ccc(NC(=O)C(c3ccccc3)c3ccccc3)cc2)s1 | 6.13% |
| CCCCC(=O)Nc1cc(OCC)c(NC(=S)NC)cc1OCC | 3% |
| Cc1ccccc1C(=O)N1CCC(C(=O)N(C)CCOc2ccccc2)CC1 | 13.6% |
| CCOC(=O)N1CCN(CC(=O)c2ccc(O)c(C)c2O)CC1 | 18.4% |
| CN(C)c1ccc(/C=c2\sc3n(c2=O)CCCN=3)cc1 | 4.95% |
| COc1ccc(CN(CC2CCCO2)C(=O)CN2C(=O)C(C)Oc3ccc(C)cc32)cc1OC (stereo not drawn) | 1.34% |
| CN1C(=O)C(C)(C)c2cc(S(=O)(=O)N3CCN(c4cccc(Cl)c4)CC3)ccc21 | 2.24% |
| C[C@@H](C(=O)NCc1ccccc1)N1C(=O)C2CC=CCC2C1=O (stereo partly drawn) | 4.46% |
| O=S1(=O)CCO[C@H]2Cc3ccccc3[C@H]2N1Cc1ccc(F)cc1 | -11.8% |
| CC(=O)c1c(C)[nH]c(C(=O)O)c1C | 9.2% |
| Cc1ccc(-c2nnn(CC(=O)N(Cc3ccco3)C(C(=O)NC(C)(C)C)c3ccncc3)n2)o1 (stereo not drawn) | 6.8% |
| Cc1ccccc1C(=O)Nc1ccc(CN2CCOCC2)cc1 | 9.27% |
| CC(=O)N(Cc1ccc(F)cc1)Cc1nc2ccccc2c(=O)[nH]1 | -3.99% |
| CCOC(=O)c1cccnc1SCC(=O)NC(C)CC (stereo not drawn) | 13.7% |
| CCOC(=O)N1CCN(S(=O)(=O)c2ccc3c(c2)C(C)C(=O)N3)CC1 (stereo not drawn) | 3.41% |
| CCCCNC(=S)Nc1cccc2cnccc12 | 1.29% |
| COCC1CCN(C(=O)CCc2nnc(C3(c4ccc(Cl)cc4)CCC3)o2)CC1 | 1.48% |
| CC1(C)CC(=O)C(C(=O)/C=C/c2ccco2)C(=O)C1 | 13.8% |
| COCc1cc(C)c(C#N)c(=S)[nH]1 | -12.8% |
| CC1Cc2ccccc2N1C(=O)Cn1cc([N+](=O)[O-])cn1 (stereo not drawn) | 3.64% |
| Cc1cc2nc3c(c(C(F)(F)F)n2n1)CCCC3 | 13% |
| CCN(CC)CCN(C(=O)/C=C/c1cccs1)c1nc2ccc(C)cc2s1.Cl | 2.14% |

| Compound | hERG current change (%, negative = inhibition) at 1uM |
| --- | --- |
| O=C1c2ccccc2C(O)(c2ccccc2)N1c1ccncc1 (stereo not drawn) | 9.69% |
| COc1cc(C(C)=O)ccc1Oc1ccc(S(=O)(=O)N2CCOCC2)cn1 | 12.5% |
| COc1ccc(NC(=O)Cn2nnc(C(=O)NCc3cccs3)c2N)cc1OC | 13.5% |
| CCN(CCCCCN(C)C)Cc1cc2ccccc2o1.Cl | 20% |
| COC(=O)c1ccc(NC(=S)NC2CCc3ccccc32)cc1 (stereo not drawn) | 15.9% |
| [O-]/C(=C(\C(=S)NCc1ccco1)[n+]1ccccc1)c1ccccc1Br | 6.24% |
| CCc1ccccc1NC(=S)N(CCN(C)C)C(C)c1ccccn1 (stereo not drawn) | -7.96% |
| CCOC(=O)COc1ccc2c(c1)C(=O)CC1(CCCCC1)O2 | 7.98% |
| CN1CCN(CC(=O)N2N=C(c3cccs3)CC2c2ccco2)CC1 (stereo not drawn) | -3.23% |
| CNS(=O)(=O)c1ccc(Oc2ccc(S(=O)(=O)NC)cc2)cc1 | 12.4% |
| CN1CCN(c2c([N+](=O)[O-])cnc3ccccc23)CC1.Cl | 5.69% |
| CCn1ccnc1CN(C)C(=O)c1cc(COc2ccc(OC)c3ccccc23)on1 | 3.69% |
| Cc1ccc(-c2nnn(CC(=O)N(c3ccccc3)C(C(=O)NC3CCCC3)c3ccco3)n2)o1 (stereo not drawn) | -4.21% |
| CCOc1ccc2nc(NC(NC(=O)CC)(C(=O)OC)C(F)(F)F)sc2c1 (stereo not drawn) | -8.97% |
| O=C(CN1CCN(S(=O)(=O)c2cccc(Br)c2)CC1)N1CCCCC1 | -1.18% |
| O=C(Cc1ccc(Br)cc1)N1CCN(Cc2ccccc2)CC1 | 4.38% |
| CCOc1ccc(C(=S)N2CCN(C)CC2)cc1 | -84.3% |
| O=C(COc1ccc(C(=O)c2ccccc2)cc1)NC1CCCCCC1 | 3.59% |
| CC(C)c1oc(=O)cc2c1[C@@H](O)[C@H]1OC(=O)[C@@]3(C)CC[C@@H](O)[C@@]2(C)C13 (stereo partly drawn) | 6.93% |
| CCS(=O)(=O)N1CCCC(C(=O)NCc2cccc(OC)c2)C1 (stereo not drawn) | 1.18% |
| CCCCC(=O)NC(c1cccc([N+](=O)[O-])c1)c1c(OC(C)=O)ccc2ccccc12 (stereo not drawn) | -2.27% |
| Cc1cc(=O)oc(C)c1C(=O)Nc1cnc2ccccc2c1 | 2.7% |
| Cc1ccc(OCC(=O)NC2CCS(=O)(=O)C2)cc1 (stereo not drawn) | 4.41% |

| Compound | hERG current change (%, negative = inhibition) at 1uM |
| --- | --- |
| CN(Cc1ccccc1F)C(=O)CCCNC(=O)c1ccc(Cl)cc1 | -13.3% |
| CC(C)OCCCNC(=O)C(=O)N/N=C/c1ccc(OCc2ccccc2)cc1 | 12.5% |
| O=C(CSc1nnc(-c2ccc(Cl)cc2Cl)n1C1CCCCC1)NC1CCS(=O)(=O)C1 (stereo not drawn) | 3.43% |
| Cc1ccccc1C(=O)Oc1ccccc1C(=O)N1CCOCC1 | -3.11% |
| Cn1c(N)c(C(=O)COC(=O)/C=C/c2cccc(C(F)(F)F)c2)c(=O)n(C)c1=O | 2.1% |
| Cc1ccccc1Nc1nc(N)nc(-c2oc3ccccc3c2C)n1 | 10.5% |
| O=C1NC(=S)S/C1=C\c1ccc2ccccc2c1 | 5.02% |
| Cc1cccc(NC(=O)c2ccc3c(Cl)c4c(nc3c2)CCCC4)n1 | 4.82% |
| COc1ccc(N2C(=O)C3C4C=CC(C5CC45)C3C2=O)c([N+](=O)[O-])c1 (stereo not drawn) | 11.8% |
| COCCCN(CC(=O)Nc1ccc(N2CCOCC2)cc1)S(=O)(=O)c1ccc(Cl)cc1 | 5.96% |
| Cc1cc(C)n(-c2nc(C(F)(F)F)nc3ccccc23)n1 | 15% |
| CCOc1ccc(CNC(=O)C2CC(=O)N(C3CCCC3)C2)cc1OC (stereo not drawn) | 12.1% |
| CCOC(=O)CN1C(=O)S/C(=C/c2cccc([N+](=O)[O-])c2O)C1=O | 10.9% |
| C=CCn1c(=O)c(C(=O)NCc2ccc(Cl)cc2)c(O)c2ccccc21 | 11.3% |
| C/C(=N\NC(=O)Cc1ccc(Cl)cc1)c1ccccn1 | -4.9% |
| COc1ccccc1N1CCN(S(=O)(=O)c2c(C)[nH]c(C)c2C(=O)N2CCCC2)CC1 | 11.9% |
| CN1CCN(/N=C/c2ccc(Cl)c(Cl)c2)CC1 | -10.8% |
| O=C(Nc1nc2ccccc2[nH]1)c1cccc(Cl)c1 | 16.9% |
| Cc1cc(C(=O)OCC(=O)NC(=O)c2cccn2C)c2ccccc2n1 | 8.72% |
| COc1cccc(NC(=O)Cn2c3ccccc3c3nc4n(c(=O)c32)CCS4)c1 | 2.19% |
| Cc1nn2cc(-c3ccc(-c4ccccc4)cc3)nc2s1 | 10.7% |
